Screen size: about 48,000 compounds; about 120 (0.25%) were called active. Not shown: some 4% with an inconclusive outcome. The call rests on the fitted dose curve; in most records, active means well fitted activation curve with a large enough effect; inconclusive means small, poorly fitted or top-dose-only effect, or another doubt; inactive means no such curve, though single readings can be large or run the other way. Some of the results follow.
Assay: Primary qHTS for Identification of Small Molecule Activators of Huntingtin-Antisense Promoter Activity; further: nearly all actives have a fitted effect of over 55% in size
Conditions: HEK293 HTT-AS promoter firefly luciferase reporter, 24 h; series mostly up to 57.5 µM; activity change, positive = activation: at the top concentration
Outline: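 HEK293 cells carrying firefly luciferase reporters were seeded at 2,500 per well in Opti-MEM and cultured for 24 h. They were then treated with compounds at up to 57.5 uM final for 24 h at 37 degrees C before Dual-Glo luminescence readout.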

Activity change, positive = activation, inactive:
COc1ccc(CNC(=O)c2cc(=O)[nH]c3ccc(S(=O)(=O)N4CCCC4)cc23)c(OC)c1 -10%, CC(=O)c1cccc(NC(=O)C(CC(C)C)NS(=O)(=O)c2ccc3c(c2)CCN3C(C)=O)c1 (stereo not drawn) 2.65%, CCOC(=O)CN(Cc1ccccc1)C(C(=O)NC1CCCCC1)c1ccc(OC)cc1 (stereo not drawn) -27.5%, COc1ccc(Cl)cc1NC(=O)c1ccc2c(c1)CCN2S(C)(=O)=O -13.9%, Cc1cc(NC(=O)CSc2nc(-c3ccccc3C)nc3c2c(=O)n(C)c(=O)n3C)no1 -3.95%, CCOc1cc(C(=O)Nc2cccc3cccnc23)cc(OCC)c1OCC -23%, Cc1c(Cl)cccc1NC(=O)C1CCCN(c2ncnc3onc(C)c23)C1 (stereo not drawn) -9.87%, CCOC(=O)N1CCC(NC(=O)c2cnn(-c3cccc(F)c3)c2-n2cccc2)CC1 -19%, NS(=O)(=O)c1ccc(CCNc2ncnc3c2cnn3-c2cccc(Cl)c2)cc1 -19.1%, O=C(NCc1ccccc1Cl)c1ccc2c(c1)N(Cc1ccccc1)C(=O)CS2 -29.2%, COc1ccc(CCC(=O)NCc2nc3cccnc3n2Cc2ccc(F)cc2)cc1 -22.1%, CN(CC(=O)Nc1ccccc1F)S(=O)(=O)c1ccc2c(c1)c(=O)n(C)c(=O)n2C -3.17%, CC1CCN(S(=O)(=O)c2ccc3c(c2)c(=O)c(C(=O)NC(C)c2ccccc2)cn3C)CC1 (stereo not drawn) -29%, Cc1ccc(-c2nnc(Nc3cccc(O)c3)c3ccccc23)cc1S(=O)(=O)NCC1CCCO1 (stereo not drawn) -43.4%, Cc1ccc(Cl)cc1N1CCN(C(=O)c2ccc3c(c2)CCN3S(=O)(=O)c2ccccc2)CC1 -21.9%, CC(=O)c1cc(-c2ccc(F)cc2)n(CC(=O)NC2CCC(C)CC2)c1C (stereo not drawn) -6.82%, CC(=O)c1cccc(NC(=O)Nc2nnc(N3CCCC3)s2)c1 5.52%, CCOC(=O)c1c(C)n(-c2ccccc2)c2ccc(OC(=O)c3cccc(C)c3)cc12 -18.1%, COc1cccc(CNC(=O)c2ccc3c(=O)n4nc(Nc5ccccc5)sc4nc3c2)c1 -18.8%, CCCOc1ccc(CNC(=O)c2ccc(C)c(-n3c(C)nc4cccnc43)c2)cc1 -7.19%, Cc1oc2ncn(C)c(=O)c2c1C(=O)NCCCN1CCCCC1C (stereo not drawn) -7.81%, O=C(Nc1cccc(C(F)(F)F)c1)N1CC2CCCN2c2ccccc21 (stereo not drawn) -25.7%, COc1ccc(-n2nc(C(=O)Nc3ccc(Cl)cn3)c3c4ccccc4n(C)c3c2=O)cc1 8.84%, Cc1cccc(NC(=O)Cn2nc3c4ccccc4n(Cc4ccccc4)cc-3c2=O)c1 -13%, COc1ccc2cc(-c3nnc(Nc4ccccc4)s3)c(=O)oc2c1 -3.45%, CCN(CC)C(=O)N1CCN(C)CC1 -9.19%, COc1cc(OC)c(N(C)C(=O)c2cn(C3CCCC3)c(=O)c3c2c2ccccc2n3C)cc1Cl -30.9%, O=C(O)CCC=CCC[C@@H]1[C@H](N2CCCCC2)[C@@H](O)C[C@@H]1OCc1ccc(-c2ccccc2)cc1 -8.52%, Cc1ccc(N2CCN(C(=O)c3cnn(-c4ccc(F)cc4F)c3C3CCN(C(=O)OC(C)(C)C)CC3)CC2)c(C)c1 -22.7%, CCN1CCN(C(c2ccc(C)cc2)c2c(O)cc(C)n(Cc3ccco3)c2=O)CC1 (stereo not drawn) 0.762%, CN(Cc1ccccc1)S(=O)(=O)c1ccc2[nH]c3c(c2c1)CCCCC3 16.1% [at 11.5 µM, percent change from vehicle, -100% = no light], COc1ccc(-n2nc(C(=O)O)c(=O)n(C)c2=O)cc1 -2.33%, COc1ccc(-c2cc3nc(C)c(CCC(=O)N4CCN(c5ccc(F)cc5)CC4)c(C)n3n2)c(OC)c1 -39.2%, Cc1ccc(Nc2nc3ccccc3c3nnc(C)n23)c(C)c1 -12.4%, CCCCN(CCCC)CCNC(=O)CN1C(=O)CSc2ccc(S(=O)(=O)N3CCOCC3)cc21 -5.91%, COc1ccccc1OCC(=O)NC1CC(=O)N(c2ccc3c(c2)OCCO3)C1 (stereo not drawn) -10.4%, CC(=O)c1cccc(Nc2cc(C)nc3nc(Cc4ccccc4)nn23)c1 -8.43%, COc1ccc(NC(=O)c2c(C)oc3ccc(O)c(CN4CCN(Cc5ccccc5)CC4)c23)cc1Cl -34.2%, COc1ccc2c(c1)CCc1c(C(=O)Nc3ccc(OC)cc3OC)noc1-2 -12.4%, COc1ccccc1NC(=O)c1sc2nc3n(c(=O)c2c1C)N=C(c1cccc(Br)c1)CS3 1.68%, COc1ccc(OC)c(/C=C(\C#N)c2nc(-c3ccc(F)cc3)cs2)c1 -0.847%, COC(=O)c1ccc2c(c1)N(Cc1ccccc1)C(=O)c1ccccc1S2(=O)=O -26.3%, COc1ccc(Cn2c(C(=O)O)c(CNC3CCCCC3)c3ccc(C)cc32)cc1 -16%, COc1ccc(Cl)cc1NC(=O)CN1Cc2ccccc2C1=O -2.77%, Cc1nc(S(=O)(=O)N2CCN(c3ccccc3F)CC2)cn1C -5.65%, Nc1c(-c2nc(-c3ccc4c(c3)OCO4)cs2)c2ccccn2c1C(=O)c1ccc(Cl)cc1 3.34%, O=C(O)c1ccc(NC(=O)c2ccc(Br)c(S(=O)(=O)N3CCCC3)c2)cc1 -16.2%, CCOc1ccc(NC(=O)Cc2c[nH]c3ccccc23)cc1 23.3%, Cc1ccc(SCc2nc(-c3ccc(C(=O)NCC(C)c4ccccc4)cc3)oc2C)cc1 (stereo not drawn) -14.1%, CCCC12CN3CC(C)(CN(C1)C3c1ccc(OCc3ccccc3)cc1)C2=O (stereo not drawn) 4.14%, CCc1ccc(S(=O)(=O)c2nnn3c2nc(NCc2ccccc2)c2cc(Cl)ccc23)cc1 11.8%, O=C(Nc1ccc(Cl)cc1)c1cc(S(=O)(=O)NC2CCCCCC2)ccc1F -31.8%, CCN1C(=O)C(Cc2nc3ccccc3c(=O)n2C)c2cc(C)ccc21 (stereo not drawn) 14.4%, CCCNC(=O)C(Cc1ccccc1)NS(=O)(=O)c1ccc2c(c1)c(=O)n(C)c(=O)n2C (stereo not drawn) -3.39%, O=C(CN1CCN(Cc2ccccc2Cl)C1=O)NCCc1ccc(Cl)cc1 -11%, Cc1ccc(-c2csc3ncnc(Nc4ccc(C(=O)O)cc4)c23)cc1 -33.7%, COc1cc(NS(=O)(=O)c2ccc(-c3cc(C)no3)cc2)cc(OC)c1 -86.8%, COc1ccccc1-c1nc2cc(NC(=O)c3ccccc3Cl)ccc2o1 16.4%, CC1CCN(S(=O)(=O)c2ccc3nc(N4CCN(c5ccc(F)cc5)CC4)ccc3c2)CC1 -6.79%, COc1ccc(CCNc2ncnc3onc(C)c23)c(OC)c1 -84.1%, COCCCn1c(=N)c(C(=O)NC2CCCCC2)cc2c(=O)n3cc(C)ccc3nc21 3.48%, CC1CCCCN1CCCNC(=O)Cn1ncc2c3ccccc3n(C)c2c1=O (stereo not drawn) -7.12%, Cc1ccc(S(=O)(=O)c2cc3cc(C(=O)Nc4ccc(C)cc4C)ccc3oc2=O)cc1 -6.9%, CCc1ccccc1NC(=O)c1ccc(F)c(S(=O)(=O)N2CCN(c3cccc(Cl)c3)CC2)c1 -20.4%, COc1cccc(C(=O)N(Cc2ccc(C)o2)C2CCS(=O)(=O)C2)c1 (stereo not drawn) -11.6%, COc1ccc(-c2cc(C(F)(F)F)nc(NCc3ccc(F)cc3)n2)cc1 -24.5%, Cc1ccc(O)c(-c2n[nH]c3c2C(c2ccc(F)cc2)N(Cc2ccco2)C3=O)c1 (stereo not drawn) -35.4%, O=C(COCc1cc(-c2cccs2)on1)Nc1cc(C(F)(F)F)ccc1Cl 11.3%, CC(C)OCCCNC(=O)CCCN1C(=O)CCn2nc(-c3cccn3C)cc21 -14.7%, Cc1c(O)cccc1C(=O)N[C@@H](CSc1ccccc1)[C@H](O)CN1C[C@H]2CCCC[C@H]2C[C@H]1C(=O)NC(C)(C)C -44.2%, CCN(c1ccccc1)S(=O)(=O)c1ccc(NC(=O)c2nc(SC(C)C)ncc2Cl)cc1 -1.82%, Cc1cccc(CNC(=O)CN2C(=O)CSc3c2c(C)nn3-c2ccccc2)c1 -4.79%, CCOC(=O)c1cnc2ccc(OCC)cc2c1Nc1ccc(OCc2ccccc2Cl)cc1 -42%, COc1cc(C(CC(=O)Nc2ncccc2C)N2Cc3ccccc3C2=O)cc(OC)c1OC (stereo not drawn) -9.7%, CC(=O)c1cc(-c2ccc(F)cc2)n(CCC(=O)Nc2nc3ccc(C)cc3s2)c1C -31.6%, CC1(C)CC(=O)c2c(C(F)(F)F)nn(-c3ccc(C(N)=O)c(NC4CCC(O)CC4)c3)c2C1 (stereo not drawn) -62.2%, O=C(OCc1cc(=O)n2nc(C3CC3)sc2n1)c1ccc(NC(=O)c2ccccc2F)cc1 12.4%, Cc1ccc(C(=O)N2CCC(C)CC2)cc1NC(=O)c1nsc2ccccc12 -15.9%, CCOc1ccc(Br)cc1C1NC(=O)c2c(sc3c2CCN(C)C3)N1 (stereo not drawn) 13.9% [at 11.5 µM, percent change from vehicle, -100% = no light], CN1CCN(C(CNC(=O)c2c(F)cccc2F)c2ccc3c(c2)OCO3)CC1 (stereo not drawn) -11.6%, Cc1cccc(N2CCN(C(=O)c3cc4ccc5cccnc5c4[nH]3)CC2C)c1 (stereo not drawn) -13.8%, O=c1c2ccccc2n(Cc2cccc(Cl)c2)c(=O)n1Cc1ccccc1 -32.1%, CCN(C(=O)Cn1ncc2c(=O)oc3ccccc3c21)c1ccccc1F -5.29%, COCCc1nn2c(=O)cc(COC(=O)c3ccc(Br)cc3)nc2s1 -3.54%, CCC(C)NC(=O)c1sc2nc3n(c(=O)c2c1C)CCC3 (stereo not drawn) 5.25%, COCCCNc1nc(NCc2ccc(C)cc2)c2cnn(C)c2n1 -18.8%, COc1cccc2c1cc1c(=O)n(CC(=O)N3CCC(C)CC3)nc(C)n12 -4.36%, COc1ccccc1-c1nc(SCC(=O)c2ccc(Cl)cc2)n[nH]1 -12.7%, CCC(=O)Nc1sc2c(c1C(=O)Nc1ccc(Br)cc1)CCCCC2 -8.18%, Cc1cc(C)c(NC(=O)CSc2nc3c([nH]c4ccccc43)c(=O)n2C)c(C)c1 -1.3%, Nc1ccn([C@@H]2O[C@H](CO)[C@@H](O)[C@H]2O)c(=O)n1 -29.2%, O=C(CN1CCN(Cc2ccc3c(c2)OCO3)CC1)N1c2ccccc2Sc2ccccc21 -2.63%, COc1ccc(CCNC(=O)c2ccc(Cn3c(=O)[nH]c4cc(OC)c(OC)cc4c3=O)cc2)cc1OC -7.21%
